# Assay results: the supplement of paper PMC8728848
# This is one part of the list.
# Columns and labels:
# Experiment in all cases: glycan array binding signal (z-score within array); higher = stronger binding
# Details in all cases: glycan notation: IUPAC condensed, linker removed
# Fuc(a1-2)Gal = biological target: Fuc(a1-2)Gal
# Procedure, shortened: (§1)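 Arrays were curated from the Consortium for Functional Glycomics database, 3228 in total, and kept only where the protein sequence was available. Binding is expressed as a within-array Z-score. This score was averaged across arrays of the same protein sequence at different concentrations or buffers and across linkers, and negative values can be read as non-binding.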
# Fuc(a1-2)Gal(b1-3)GalNAc = biological target: Fuc(a1-2)Gal(b1-3)GalNAc
# Procedure, shortened: as §1
# [1] = biological target: Fuc(a1-2)Gal(b1-3)GalNAc(a1-3)[Fuc(a1-2)]Gal(b1-4)Glc
# Procedure, shortened: as §1
# [2] = biological target: Fuc(a1-2)Gal(b1-3)GalNAc(a1-3)[Fuc(a1-2)]Gal(b1-4)GlcNAc
# Procedure, shortened: as §1
# [3] = biological target: Fuc(a1-2)Gal(b1-3)GalNAc(b1-3)Gal
# Procedure, shortened: as §1
# [4] = biological target: Fuc(a1-2)Gal(b1-3)GalNAc(b1-3)Gal(a1-4)Gal(b1-4)Glc
# Procedure, shortened: as §1
# [5] = biological target: Fuc(a1-2)Gal(b1-3)GalNAc(b1-4)[Neu5Ac(a2-3)]Gal(b1-4)Glc
# Procedure, shortened: as §1
# Fuc(a1-2)Gal(b1-3)GlcNAc = biological target: Fuc(a1-2)Gal(b1-3)GlcNAc
# Procedure, shortened: as §1
# [6] = biological target: Fuc(a1-2)Gal(b1-3)GlcNAc(b1-2)Man(a1-3)[Fuc(a1-2)Gal(b1-3)GlcNAc(b1-2)Man(a1-6)]Man(b1-4)GlcNAc(b1-4)GlcNAc
# Procedure, shortened: as §1
# [7] = biological target: Fuc(a1-2)Gal(b1-3)GlcNAc(b1-2)Man(a1-3)[Fuc(a1-2)Gal(b1-3)GlcNAc(b1-2)Man(a1-6)]Man(b1-4)GlcNAc(b1-4)[Fuc(a1-6)]GlcNAc
# Procedure, shortened: as §1
# [8] = biological target: Fuc(a1-2)Gal(b1-3)GlcNAc(b1-3)Gal(b1-4)Glc
# Procedure, shortened: as §1
# [9] = biological target: Fuc(a1-2)Gal(b1-3)GlcNAc(b1-3)GalNAc
# Procedure, shortened: as §1
# [10] = biological target: Fuc(a1-2)Gal(b1-3)GlcNAc(b1-3)[Fuc(a1-3)[Gal(b1-4)]GlcNAc(b1-6)]Gal(b1-4)Glc
# Procedure, shortened: as §1
# [11] = biological target: Fuc(a1-2)Gal(b1-3)GlcNAc(b1-3)[Gal(b1-4)GlcNAc(b1-6)]Gal(b1-4)Glc
# Procedure, shortened: as §1
# [12] = biological target: Fuc(a1-2)Gal(b1-3)[Fuc(a1-4)]GlcNAc
# Procedure, shortened: as §1
# [13] = biological target: Fuc(a1-2)Gal(b1-3)[Fuc(a1-4)]GlcNAc(b1-2)Man(a1-3)[Fuc(a1-2)Gal(b1-3)[Fuc(a1-4)]GlcNAc(b1-2)Man(a1-6)]Man(b1-4)GlcNAc(b1-4)GlcNAc
# Procedure, shortened: as §1
# [14] = biological target: Fuc(a1-2)Gal(b1-3)[Fuc(a1-4)]GlcNAc(b1-3)[Fuc(a1-3)[Gal(b1-4)]GlcNAc(b1-6)]Gal(b1-4)Glc
# Procedure, shortened: as §1
# [15] = biological target: Fuc(a1-2)Gal(b1-3)[Fuc(a1-4)]GlcNAc(b1-3)[Gal(b1-4)GlcNAc(b1-6)]Gal(b1-4)Glc
# Procedure, shortened: as §1
# Fuc(a1-2)Gal(b1-4)Glc = biological target: Fuc(a1-2)Gal(b1-4)Glc
# Procedure, shortened: as §1
# Fuc(a1-2)Gal(b1-4)Glc6S = biological target: Fuc(a1-2)Gal(b1-4)Glc6S
# Procedure, shortened: as §1
# Fuc(a1-2)Gal(b1-4)GlcNAc = biological target: Fuc(a1-2)Gal(b1-4)GlcNAc
# Procedure, shortened: as §1
# [16] = biological target: Fuc(a1-2)Gal(b1-4)GlcNAc(b1-2)Man(a1-3)[Fuc(a1-2)Gal(b1-4)GlcNAc(b1-2)Man(a1-6)]Man(b1-4)GlcNAc(b1-4)GlcNAc
# Procedure, shortened: as §1
# [17] = biological target: Fuc(a1-2)Gal(b1-4)GlcNAc(b1-2)Man(a1-3)[Fuc(a1-2)Gal(b1-4)GlcNAc(b1-2)Man(a1-6)]Man(b1-4)GlcNAc(b1-4)[Fuc(a1-6)]GlcNAc
# Procedure, shortened: as §1
# [18] = biological target: Fuc(a1-2)Gal(b1-4)GlcNAc(b1-2)[Fuc(a1-2)Gal(b1-4)GlcNAc(b1-4)]Man(a1-3)[Fuc(a1-2)Gal(b1-4)GlcNAc(b1-2)Man(a1-6)]Man(b1-4)GlcNAc(b1-4)GlcNAc
# Procedure, shortened: as §1
# [19] = biological target: Fuc(a1-2)Gal(b1-4)GlcNAc(b1-3)Gal(b1-4)GlcNAc
# Procedure, shortened: as §1
# [20] = biological target: Fuc(a1-2)Gal(b1-4)GlcNAc(b1-3)Gal(b1-4)GlcNAc(b1-3)Gal(b1-4)GlcNAc
# Procedure, shortened: as §1
# [21] = biological target: Fuc(a1-2)Gal(b1-4)GlcNAc(b1-3)GalNAc
# Procedure, shortened: as §1
# [22] = biological target: Fuc(a1-2)Gal(b1-4)GlcNAc6S
# Procedure, shortened: as §1
# [23] = biological target: Fuc(a1-2)Gal(b1-4)[Fuc(a1-3)]GlcNAc
# Procedure, shortened: as §1
# [24] = biological target: Fuc(a1-2)Gal(b1-4)[Fuc(a1-3)]GlcNAc(b1-2)Man(a1-3)[Fuc(a1-2)Gal(b1-4)[Fuc(a1-3)]GlcNAc(b1-2)Man(a1-6)]Man(b1-4)GlcNAc(b1-4)GlcNAc
# Procedure, shortened: as §1
binder,measurement,setting,value
"CwpV (Clostridium difficile), B6EFG6 (protein) MKIPKKIAAMLTVTMIAGSSTAGIASAQTVATNLTGQERYETAVKISQDGWKNADEVVIVNDSSIADALSATPFAKAKNAPILLTSKDKLNDKTKAEIQRLKAKKVYLIGGTSVLSTNIEKEIKDLKISFERISGAERYQTSLELAKKLDAISDVKKIAVVNGEKGLADAVSVGAPAAQNNMPVILADSKNGTAVADKFIKDAGITQSYVVGGESSISEAVKNKLPNSTRLGGTDRNDTNAKVIKEFYKKTDLKNAYVTKDGMNKQDQLIDALAVGVLGAKNQSPVVLVGKNLSASQKSLVNSKSFDKITKVGGNGNETAFNEMKSLQEVKTVEAKTISELKSAIDKATANDVINFKPTSEVKEAFTIQTDKAVTVNLNGTYTKTVTINMPNGDVNNYAKVDDVVIDDVKDGTFVNYGKITNLKVNDKNGAKIENNSKGEIGSLTVASGASQVKVTNGGKITTVTNNSKGTTIDNKGTISSVKGDNSPTISGNSPSSNSSGGSSSSGGSSGGSSGGSSSSKVGQIKFSATDKQIKMASGDKTVDPSDNTYILKLTNGTVKDGDVKANVKVAGLPSGLDYTAVGNRSANTITITVSGTTSQSIQNDLNNVSVLVKAGAVSGTGATDSIANTTFEIKKYVAAPAVGQLTFDATDKQIKMASGDKTVDPSDDTYVLTLTKGTAKDGDIKANVEVTGLPSGLDYTAEGDSSANTITIPVSGTASPAVQTDLDNVSVLVKAGAVSETTATDSAANATFEVKKYVAPAVGQLTFDATDKQIKMASGDKTVDPSDDTYVLTLTKGTAKDGDIKANVEVTGLPSGLDYTAEGDSSANTITITVSGTASQAVQTDLDNVSVLVKAGAVSETTATDSAANATFEVKKYVAPAIGQLTFDATDKQIKMASGDKTVDPSDDTYVLTLTKGTAKDGDIKANVEVTGLPSGLDYTAEGDSSANTITITVSGTASQAVQTDLDNVSVLVKAGAVSETTATDSAANATFEVKKHASDPISTIGKISSGLSSLFNILK",glycan array binding signal (z-score),Fuc(a1-2)Gal,-0.289
same,glycan array binding signal (z-score),Fuc(a1-2)Gal(b1-3)GalNAc,-0.257
same,glycan array binding signal (z-score),[1],-0.253
same,glycan array binding signal (z-score),[2],-0.306
same,glycan array binding signal (z-score),[3],0.238
same,glycan array binding signal (z-score),[4],2.48
same,glycan array binding signal (z-score),[5],-0.26
same,glycan array binding signal (z-score),Fuc(a1-2)Gal(b1-3)GlcNAc,-0.328
same,glycan array binding signal (z-score),[6],0.672
same,glycan array binding signal (z-score),[7],0.535
same,glycan array binding signal (z-score),[8],-0.266
same,glycan array binding signal (z-score),[9],-0.285
same,glycan array binding signal (z-score),[10],-0.325
same,glycan array binding signal (z-score),[11],-0.315
same,glycan array binding signal (z-score),[12],-0.318
same,glycan array binding signal (z-score),[13],-0.178
same,glycan array binding signal (z-score),[14],-0.222
same,glycan array binding signal (z-score),[15],0.041
same,glycan array binding signal (z-score),Fuc(a1-2)Gal(b1-4)Glc,-0.302
same,glycan array binding signal (z-score),Fuc(a1-2)Gal(b1-4)Glc6S,-0.152
same,glycan array binding signal (z-score),Fuc(a1-2)Gal(b1-4)GlcNAc,-0.242
same,glycan array binding signal (z-score),[16],0.321
same,glycan array binding signal (z-score),[17],-0.341
same,glycan array binding signal (z-score),[18],-0.132
same,glycan array binding signal (z-score),[19],0.358
same,glycan array binding signal (z-score),[20],0.616
same,glycan array binding signal (z-score),[21],0.354
same,glycan array binding signal (z-score),[22],-0.174
same,glycan array binding signal (z-score),[23],-0.281
same,glycan array binding signal (z-score),[24],0.828
